# Measurements from PubChem BioAssay AID1508642 (National Center for Advancing Translational Sciences (NCATS), 2021).
# Out of some 43,000 compounds screened, about 200 (0.47%) were called active. About 12% were inconclusive and are not listed. Calls come from the whole dose curve; as a rule, active = well fitted cell-killing curve with a large enough effect; inconclusive = small, poorly fitted or top-dose-only effect, or effect the other way; inactive = flat fitted curve, though single readings scatter. This is one part of the list.
# Assay: Cell viability qHTS assay in S16 Pmp22-F2sN cells; note: nearly all actives have a fitted effect of over 65% in size
# Details: S16 Pmp22-F2sN Schwann cells (luciferase reporters placed in the Pmp22 gene) viability, CellTiter-Glo, 24 h; series mostly up to 57.5 µM; activity change, negative = cytotoxicity: at the top concentration
# Procedure, shortened: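 S16 Schwann cells carrying the Pmp22-F2sN reporter, seeded in 1536-well format, were exposed to library compounds for 24 h at 37C. Viability was read as CellTiter-Glo luminescence after 15 min at room temperature.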
# % is set by controls: 0 for no effect and ±100 for the full control effect.
row,Structure (SMILES),"activity change, negative = cytotoxicity"
1,O=C(NCCc1csc(-c2cccc(F)c2)n1)c1ccc(Br)o1,inactive: 6.59%
2,Cc1ccc(Cl)cc1NCc1nnc2n1CCCCC2,inactive: 6.31%
3,O=C1CC(c2nc(-c3cccc(Cl)c3)no2)CN1c1ccc2c(c1)OCCO2 (configuration not stated),inactive: 2.57%
4,O=C(Nc1ccc2c(c1)N(C1CCCC1)C(=O)c1ccccc1S2)c1cccc(F)c1,inactive: -27.5%
5,CC(C)Oc1ccc(CNC(=O)CCn2c(=O)c3cccn3c3ccc(F)cc32)cc1,inactive: 12.3%
6,COc1cccc(CNC(=O)C2CCCN(c3ncnc4onc(-c5ccc(F)cc5)c34)C2)c1 (configuration not stated),inactive: 0.504%
7,CC(C)OCCCNC(=O)CN1C(=O)CSc2ccc(S(=O)(=O)N3CCCCC3)cc21,inactive: -1.74%
8,CCOc1ccccc1CNC(=O)CCc1cn(Cc2ccc(Cl)cc2)c2ccccc12,inactive: -19.8%
9,CCN(C(=O)Cn1c(=O)oc2cc(S(=O)(=O)N3CCCC3)ccc21)c1cccc(C)c1,inactive: -8.08%
10,Cc1n[nH]c(C)c1S(=O)(=O)N(CC(=O)NCc1ccccc1Cl)c1ccc(C(C)C)cc1,inactive: -13.2%
11,Cc1ccc(-n2nnnc2C2CCN(S(=O)(=O)c3ccc(OC(F)(F)F)cc3)CC2)cc1,inactive: -4.42%
12,O=C(CCS(=O)(=O)c1cc2c(cc1Cl)NC(=O)CO2)NCCc1ccc(Cl)cc1,inactive: 6.57%
13,COc1ccc(NC(=O)CSc2nc(-c3ccco3)cc(C(F)(F)F)n2)c(OC)c1,inactive: 4.89%
14,CCCc1nn2c(=O)cc(COc3ccc(/C=C(\C#N)C(=O)Nc4ccc(F)cc4)cc3)nc2s1,inactive: 10.9%
15,CCN(CC)C(=O)Cn1c(SCCOc2ccc(Cl)cc2)nc2ccccc21,inactive: 5.33%
16,COc1ccc(NC(=O)c2ccc(CNS(=O)(=O)c3ccc4c(c3)C(C)(C)C(=O)N4C)cc2)cc1,inactive: -9.52%
17,CC(=O)N1c2ccccc2C(=O)C1N1CCN(c2ccc(F)cc2)CC1 (configuration not stated),inactive: 3.75%
18,Cc1ccc2oc(-c3cc(NC(=O)c4ccc5c(c4)OCCO5)cc(C)c3O)nc2c1,inactive: 8.33%
19,COc1cc(NC(=O)c2nc3ccccc3nc2C)cc(OC)c1OC,inactive: -1.42%
20,COc1ccc(C2C(=O)N(C3CCCCC3)CC(=O)N2CCc2ccc(OC)c(OC)c2)cc1 (configuration not stated),inactive: 14.8%
21,Cc1ccc(C)c(CN2C(=O)C3(c4ccccc42)N(c2cccc(C(F)(F)F)c2)C(=O)CS3(=O)=O)c1 (configuration not stated),inactive: 24%
22,Cc1ccccc1OCc1ccc(-c2nc(C#N)c(N3CCN(C)CC3)o2)o1,inactive: -7%
23,Cc1ccc(Cl)cc1N1CCN(C(=O)c2cccn3c(=O)c4cc(Cl)ccc4nc23)CC1,inactive: -3.49%
24,CC1=C(C(=O)OCC(C)C)C(c2ccc(OCc3ccccc3)cc2)N2C(=O)CCSC2=N1 (configuration not stated),inactive: -11.1%

row,Structure (SMILES),"activity change, negative = cytotoxicity"
1,Cc1ccc(-n2nc(C(=O)Nc3ccc(Cl)cn3)c3c4ccccc4n(C)c3c2=O)cc1,inactive: 9.64%
2,CCC(C(=O)N1CCN(c2ccccc2F)CC1)n1nc(C)c2sc3ccccc3c2c1=O (configuration not stated),inactive: 6.03%
3,COc1cc(CN(C(=O)c2cccc(Cl)c2)c2ccccn2)cc(OC)c1OC,inactive: -2.18%
4,COc1ccc(NC(=O)CCn2nc(-c3ccccc3OC)c3c(C)cc(C)nc32)cc1,inactive: 4.36%
5,Cc1ccc(C2CC(=O)N(Cc3ccccc3)c3c2c(C)nn3-c2nc(C)cc(C)n2)cc1 (configuration not stated),inactive: -7.64%
6,CC1CN(C(=O)N2CCC(C(=O)NCCC3=CCCCC3)CC2)c2cc(Cl)ccc2O1 (configuration not stated),inactive: -20.9%
7,COc1ccc(NC(=O)CSc2nc3ccncc3[nH]2)c(OC)c1,inactive: -11.1%
8,Cc1cc(NC(=O)CSc2nc3c([nH]c4ccccc43)c(=O)n2-c2ccccc2)no1,inactive: 7.5%
9,O=c1cc(-c2ccc(F)cc2)nc(SCc2nc(-c3cccc(Cl)c3)no2)[nH]1,inactive: -3.41%
10,CCc1ccc(NC(=O)CSc2nccn2-c2cccc(C)c2C)cc1,inactive: -6.83%
11,CCc1ccc(NC(=O)c2ccc(F)c(S(=O)(=O)N(C)C3CCCCC3)c2)cc1,inactive: -28.8%
12,Cc1ccc(C)n1-c1c(C(=O)NCCCN2CCN(c3ccc(F)cc3)CC2)sc2ncccc12,inactive: -3.83%
13,Cc1ccc2c(=O)cc(C(=O)Nc3sc4c(c3C(N)=O)CCCC4)oc2c1,inactive: -4.4%
14,Cc1ccc(Cl)cc1-n1ncc2c(NCCCn3ccnc3)ncnc21,inactive: -0.211%
15,O=C(C1CCN(S(=O)(=O)Cc2ccccc2)CC1)N1CCN(c2ccc(F)cc2)CC1,inactive: -1.6%
16,Cc1cc2nc(-c3ccc(OCc4ccc(F)cc4)cc3)cc(C(F)(F)F)n2n1,inactive: -3.25%
17,Cc1ccc(C)c(Cn2c(=O)n(Cc3ccc4c(c3)OCO4)c(=O)c3oc4ccccc4c32)c1,inactive: -3.37%
18,CCCCOc1ccc(C(=O)NCCc2sc(-c3cccc(F)c3)nc2C)cc1,inactive: -5.81%
19,O=C(Nc1ccc(NC(=O)c2cccs2)cc1)c1cccc(Br)c1,inactive: 10.2%
20,CCc1cccc(NC(=O)c2cnc(SC)nc2-c2ccccc2)c1,inactive: -7.4%
21,Cc1nc2sc(C(=O)Nc3ccc(F)cc3)c(N)c2c(-c2ccc(Br)cc2)c1C(=O)Nc1ccc(Cl)cc1,inactive: -12.7%
22,CCOc1ccc(/C=C/c2nc(C#N)c(NC(C)CC)o2)cc1 (configuration not stated),inactive: 0.632%
23,CCOc1ccc(Sc2cc(C(=O)NC(C)CC)c3ccccc3n2)cc1 (configuration not stated),inactive: 11.2%
